Reference: PubChem BioAssay (NCI)
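96-well plates; 48 h exposure; 5 concentrations. Endpoints by linear interpolation between flanking doses. Not reached: highest tested concentration assigned. The concentration for 50% growth inhibition is given as GI50. Definition used: TGI = concentration required for complete inhibition of growth.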

The compounds below were run on NCI-H322M lung (assay: NCI tumour cell line growth inhibition, 48 h).

**Q.** `CC(NC(=O)c1ccc(NP(=O)(OCc2ccc([N+](=O)[O-])o2)N(C)CCCCCl)cc1)c1ccc(OCC2CCCCC2)c(C(N)=O)c1` (configuration not stated) was tested. Which TGI did it give?
**A.** 59.8 µM

**Q.** How did the TGI turn out when `O=C1OC(C2(O)OC(=O)c3ccccc32)c2ccccc21` (configuration not stated) was run?
**A.** > 100 µM

**Q.** Which TGI does the source give for `CCN(CC)c1ccc2nc3ccc(N=Nc4c(O)ccc5ccccc45)cc3[n+](-c3ccccc3)c2c1` here?
**A.** > 100 µM

**Q.** For `CC(=O)OCC(C)(COC(C)=O)N1C(=O)C2C3c4ccccc4C(c4ccccc43)C2C1=O` (configuration not stated), which TGI is on record?
**A.** > 100 µM

**Q.** How did the TGI turn out when `C#CCN(N=O)C(=O)NCCCCC(NC(C)=O)C(=O)NCc1ccccc1` (configuration not stated) was run?
**A.** > 100 µM

**Q.** With `C[N+](C)(C)CC(=O)N/N=C(\C(=O)NC1=C(Cl)C(=O)c2ccccc2C1=O)C(C#N)c1nc(-c2ccc([N+](=O)[O-])cc2)cs1` (configuration not stated) as the compound, how does the TGI read?
**A.** 28.2 µM

**Q.** Which TGI does the source give for `COc1ccc(C2=C(N)c3ncccc3C2=O)cc1` here?
**A.** > 100 µM

**Q.** With `CCOC(=O)C#Cc1c(C(=O)OCC)nnn1Cc1ccc([N+](=O)[O-])cc1` as the compound, how does the GI50 read?
**A.** 15.2 µM

**Q.** What about the TGI of the same compound?
**A.** 30.3 µM

**Q.** For `CCOC(=O)C(CC/C=C\c1ccccc1)N1CCC[C@H]1C(=O)OC` (some centres not stated), which TGI is on record?
**A.** > 100 µM

**Q.** Which results are given for `CC([C@H]1CCC2C3CCC4C[C@@H](N)CC[C@]4(C)C3CC[C@@]21C)N(C)C` (some centres not stated)?
**A.** GI50: 3.94 µM; TGI: 19.1 µM

**Q.** For `C[C@]12CC[C@@H]3c4ccc(O)cc4CC[C@H]3[C@@H]1CC[C@@H]2OC(=O)CCc1ccccc1`, which TGI is on record?
**A.** 45.5 µM

**Q.** Which results are given for `COC(=O)c1cc2c3ccccc3[nH]c2c2sccc12`?
**A.** GI50: 38.2 µM; TGI: > 100 µM

**Q.** Which TGI does the source give for `COc1cc(/C=C\c2nnc(/C=C\c3ccc(O)c(OC)c3)s2)ccc1O` here?
**A.** 27.8 µM

**Q.** Which TGI does the source give for `COc1ccc(/C(=C/n2ccnc2)C(O)c2ccc(OC)c(OC)c2)cc1OC` (configuration not stated) here?
**A.** > 100 µM

**Q.** `COc1cc(-c2csc(NC(=O)Nc3ccc(C(F)(F)F)cc3)n2)cc(OC)c1OC` was tested. Which GI50 did it give?
**A.** 2.1 µM

**Q.** And the TGI?
**A.** 8.46 µM

**Q.** With `COc1cc(C2=N/C(=C/c3cccs3)C(=O)O2)cc(OC)c1OC` as the compound, how does the TGI read?
**A.** > 100 µM

**Q.** Which GI50 does the source give for `C=C(CO)[C@@H]1CC[C@]2(COC3CCCCO3)CC[C@]3(C)[C@H](CC[C@@H]4[C@@]5(C)C=C(C=O)C(=O)C(C)(C)[C@@H]5CC[C@]43C)[C@@H]12` (some centres not stated) here?
**A.** 1.1 µM

**Q.** And the TGI?
**A.** 2.38 µM
